Earlier results on 39 sequences are cited in article PMC11006913.

This is one part of the list.

The target of this series is PROP1 R112Q (Homo sapiens) (UniProt O75360). The following applies: PBM; conditions not shown; double strand, one strand shown; scale: upbm affinity estimate (log intensity, higher = more binding, comparable within an allelic series).
Sequence of UniProt O75360 (O75360 56-141 R112Q): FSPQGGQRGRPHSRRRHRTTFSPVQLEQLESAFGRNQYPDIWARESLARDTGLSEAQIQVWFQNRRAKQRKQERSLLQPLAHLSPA
As for CAATTGCA [8-mer CAATTGCA], the binding signal is 12.2.
As to TATATTAA [8-mer TATATTAA], the binding signal is 12.2.
For AGCAATTG [8-mer AGCAATTG], the binding signal is 12.1.
Take GACAATAA [8-mer GACAATAA]: the binding signal was 11.9.
ATCAATAG [8-mer ATCAATAG]: the binding signal is 12.
With AAGGTAAT [8-mer AAGGTAAT], the binding signal was 12.
Regarding TATTAAGA [8-mer TATTAAGA], the binding signal is 12.
As for CAATTGGA [8-mer CAATTGGA], the binding signal is 12.3.
Consider TGTGATAA [8-mer TGTGATAA], for which the binding signal was 11.9.
As for AATATTGG [8-mer AATATTGG], the binding signal was 12.
ACGATTGG [8-mer ACGATTGG]: the binding signal was 11.7.
As to ATTAAACC [8-mer ATTAAACC], the binding signal was 12.2.
On to TATTGACA [8-mer TATTGACA], for which the binding signal was 11.9.
Take ACTAGTTA [8-mer ACTAGTTA]: the binding signal is 11.8.
For the sequence CCAATAGA [8-mer CCAATAGA], the binding signal was 12.
For AAATATCT [8-mer AAATATCT], the binding signal was 11.7.
With CAATTGTA [8-mer CAATTGTA], the binding signal was 12.2.
Turning to ACCAATTC [8-mer ACCAATTC], the binding signal was 12.1.
As to ACAATTGC [8-mer ACAATTGC], the binding signal was 12.1.
For the sequence GATCAATA [8-mer GATCAATA], the binding signal is 11.9.
For the sequence ACCAATCG [8-mer ACCAATCG], the binding signal is 11.8.
Take ATCTATTG [8-mer ATCTATTG]: the binding signal was 11.8.
Take GAATTGGC [8-mer GAATTGGC]: the binding signal is 12.
With TATCAATA [8-mer TATCAATA], the binding signal is 12.
On to GATCAATC [8-mer GATCAATC], for which the binding signal is 12.
Consider CCAATCAA [8-mer CCAATCAA], for which the binding signal is 12.2.
With CAATTGTC [8-mer CAATTGTC], the binding signal is 12.2.
In the case of GCCAATAA [8-mer GCCAATAA], the binding signal was 12.3.
Turning to ATTTAGTA [8-mer ATTTAGTA], the binding signal is 12.
With AGTAATCA [8-mer AGTAATCA], the binding signal was 12.1.
Turning to CAATTCAG [8-mer CAATTCAG], the binding signal is 11.9.
Consider ATCAATCG [8-mer ATCAATCG], for which the binding signal is 12.1.
Consider CCAATTTA [8-mer CCAATTTA], for which the binding signal is 12.6.
With CAATAGAC [8-mer CAATAGAC], the binding signal was 11.8.
Turning to AATTGTAA [8-mer AATTGTAA], the binding signal was 12.1.
As for AATTGCGA [8-mer AATTGCGA], the binding signal is 12.
ATTGATTG [8-mer ATTGATTG]: the binding signal was 12.6.
For GATTGGAC [8-mer GATTGGAC], the binding signal was 11.8.
On to AATCATCG [8-mer AATCATCG], for which the binding signal is 11.9.
